# According to article PMC4336329 (PLoS ONE, 2015):
# Among all 310,000 compounds or so, about 2,200 (0.71%) showed an effect of 50% or more. The effect is printed as a negative number. The list shows a part of the results.
# Target: human ether-à-go-go-related gene (hERG) potassium channel (human, UniProt Q12809)
# Test: primary screen, population patch clamp on CHO cells stably expressing hERG
# human ether-à-go-go-related gene (hERG) potassium channel, sequence (Q12809 whole entry, looked up): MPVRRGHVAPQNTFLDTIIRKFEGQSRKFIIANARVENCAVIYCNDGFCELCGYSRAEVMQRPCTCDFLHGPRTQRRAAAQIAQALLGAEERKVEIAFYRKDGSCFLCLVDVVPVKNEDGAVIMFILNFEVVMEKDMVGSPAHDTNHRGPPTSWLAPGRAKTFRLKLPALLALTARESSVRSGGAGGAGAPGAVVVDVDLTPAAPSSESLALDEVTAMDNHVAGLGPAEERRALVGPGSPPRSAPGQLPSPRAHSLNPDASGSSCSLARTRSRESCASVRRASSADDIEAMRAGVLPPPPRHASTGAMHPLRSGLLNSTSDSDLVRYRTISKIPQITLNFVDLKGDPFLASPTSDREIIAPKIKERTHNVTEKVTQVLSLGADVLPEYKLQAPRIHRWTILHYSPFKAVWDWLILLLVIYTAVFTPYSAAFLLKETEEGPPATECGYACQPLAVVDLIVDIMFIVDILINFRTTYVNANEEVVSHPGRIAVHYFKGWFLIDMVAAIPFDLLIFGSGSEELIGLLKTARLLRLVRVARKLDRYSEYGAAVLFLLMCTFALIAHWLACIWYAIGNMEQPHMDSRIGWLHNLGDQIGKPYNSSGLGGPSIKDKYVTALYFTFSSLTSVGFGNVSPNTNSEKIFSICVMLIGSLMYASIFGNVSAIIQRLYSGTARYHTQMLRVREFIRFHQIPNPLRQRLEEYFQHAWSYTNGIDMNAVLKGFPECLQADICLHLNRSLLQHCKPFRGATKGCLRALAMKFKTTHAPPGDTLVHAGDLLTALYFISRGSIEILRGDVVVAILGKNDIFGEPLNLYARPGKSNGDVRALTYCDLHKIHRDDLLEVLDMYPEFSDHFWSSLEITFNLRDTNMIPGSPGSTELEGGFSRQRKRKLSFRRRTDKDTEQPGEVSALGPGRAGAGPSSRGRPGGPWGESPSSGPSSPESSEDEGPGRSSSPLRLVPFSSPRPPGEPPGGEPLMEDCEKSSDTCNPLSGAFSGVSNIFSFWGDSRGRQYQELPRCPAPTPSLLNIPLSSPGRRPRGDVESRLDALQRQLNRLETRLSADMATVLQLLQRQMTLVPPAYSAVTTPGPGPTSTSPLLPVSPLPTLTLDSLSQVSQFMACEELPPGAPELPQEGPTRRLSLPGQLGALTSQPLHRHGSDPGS
row,SMILES,"hERG current change (%, negative = inhibition) at 1uM"
1,Cc1ccccc1NC(=O)COC(=O)c1ccc(CSc2ccc(Cl)cc2)cc1,6.75%
2,NC(=O)NC(=O)COC(=O)CC12CC3CC(CC(C3)C1)C2,-3.06%
3,CCOP(=O)(OCC)C(NC(=O)Nc1ccc(Cl)cc1)c1ccccc1 (centres unmarked),12.5%
4,Cc1ccc(NC(=O)C2C3C=CC4(O3)C2C(=O)N(CCCN2CCOCC2)C4C(=O)NC2CCCCC2)cc1Cl (centres unmarked),13.6%
5,COC(=O)[C@@H]1[C@@H](C)N(Cc2ccccc2)C(=O)N[C@H]1c1ccccc1,12.5%
6,CCCSc1nc(C)c(-c2csc(C(C#N)=C3CCCC3)n2)cc1C#N,-3.25%
7,CC(C)(C)OC(=O)N[C@H](C(=O)OC(C)(C)C)c1ccc(C(F)(F)F)cc1,12.8%
8,CCOC(=O)C1=C(N)Oc2cc(O)ccc2C1c1ccc(Br)cc1 (centres unmarked),3.57%
9,COc1ccc(S(=O)(=O)N2CC(O)CC2C(=O)OCC(=O)Nc2ccc(Cl)cn2)cc1 (centres unmarked),-3.89%
10,CCCNC(=O)N1CCN(S(=O)(=O)c2ccc3c(c2)OCCO3)CC1,4.2%
11,COc1ccc(S(=O)(=O)N2CCNCC2)cc1OC,10.5%
12,S=c1[nH]nc(-c2cccs2)n1/N=C/c1cn(-c2ccccc2)nc1-c1ccc(Cl)cc1,6.42%
13,CN(CC(=O)Nc1cc(Cl)ccc1C#N)C1CCS(=O)(=O)C1 (centres unmarked),7.82%
14,CCOC(=O)[C@H]1[C@H]2COc3ccc(Cl)cc3[C@@H]2N2C(=O)c3cc(F)ccc3NC(=O)[C@@]12C,13.9%
15,COc1cccc(C(=O)NCCCNC(=O)c2ccco2)c1,10.6%
16,COc1ccccc1N1CCN(C(=O)C(=O)c2cn(CC(=O)N3CCCCCC3)c3ccccc23)CC1,1.05%
17,CCOC(=O)c1cc(S(=O)(=O)Nc2ccc(OC)cc2OC)cn1C,14.7%
18,Cc1csc(=O)n1CCC(=O)OCC(=O)NCc1ccc(F)cc1,11.5%
19,Cc1cc(Cl)ccc1OCC(=O)NCCC(=O)O,16.1%
20,COc1ccc(C(O)P(=O)(OCCC(C)C)c2ccc(N(C)C)cc2)cc1OC (centres unmarked),11.6%
21,COc1ccc(NC(=O)NCc2ccc(Cl)cc2)cc1,11.1%
22,O=C(CCCO)CCCCCCCCC[C@H]1N[C@H](CO)[C@@H](O)[C@@H]1O,19.5%
23,Cc1cccc(C)c1NC(=O)CSc1nc(COc2ccccc2)nc2ccccc12,10.9%
